Patent US20250084170A1 (SHAPERON, published 2025)
Changes are numbered by the printed parent chain.

What was measured:
[1] = target: T1, PD-L1 antigen expressed on the cell surface (CHO-K1_PD-L1 cell line) (human, UniProt Q9NZQ7); assay: FACS competition on CHO-K1_PD-L1 cells, competitor human PD-1-His 10 µg/mL
T1 construct: whole, on cells; also called CHO-K1_PD-L1 cells; CHO-K1 cells stably expressing PD-L1 antigen

[2] = target: T2, PD-L1 antigen (human PD-L1 protein, Octet analyte) (human, UniProt Q9NZQ7 in part, limits assumed); assay: BLI (Octet RED 96e), antibody on anti-human Fc tips, PD-L1 antigen as analyte, 1:1 global fit
T2 construct: also called human PD-L1 antigen

[3] = target: T3, CD47 antigen expressed on the cell surface (Expi-CHO_CD47 cell line) (human, UniProt Q08722); assay: FACS competition on Expi-CHO_CD47 cells, competitor human SIRPalpha-His 10 µg/mL
T3 construct: whole, on cells; also called Expi-CHO cells stably expressing CD47 antigen

[4] = target: T4, CD47 antigen (human CD47 protein, Octet analyte) (human, UniProt Q08722 in part, limits assumed); assay: BLI (Octet RED 96e), antibody on anti-human Fc tips, CD47 antigen as analyte, 1:1 global fit
T4 construct: also called human CD47 antigen

[5] = target: T5, cynomolgus monkey PD-L1 antigen (cynomolgus monkey, UniProt G7PSE7 19-238); assay: BLI (Octet RED 96e), cross-species series, antibody on anti-human Fc tips, cynomolgus PD-L1 as analyte
T5 construct: also called Cynomolgus PD-L1
T5 sequence (G7PSE7 entry or part of it): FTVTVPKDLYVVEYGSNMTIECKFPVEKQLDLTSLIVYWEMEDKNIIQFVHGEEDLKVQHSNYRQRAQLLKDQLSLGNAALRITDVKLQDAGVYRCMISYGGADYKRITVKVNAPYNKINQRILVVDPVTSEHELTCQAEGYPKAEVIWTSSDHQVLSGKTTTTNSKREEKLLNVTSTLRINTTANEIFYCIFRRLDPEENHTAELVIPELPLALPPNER

[6] = target: T2, PD-L1 antigen (human PD-L1 protein, …); assay: BLI (Octet RED 96e), cross-species series, antibody on anti-human Fc tips, human PD-L1 as analyte
[7] = target: T1, PD-L1 antigen expressed on the cell …; assay: cell-based or functional assay
[8] = target: T6, mouse CD47 antigen (mouse, UniProt Q61735 19-140, limits assumed); assay: BLI (Octet RED 96e), antibody on anti-human Fc tips, antigen as analyte
T6 sequence (looked up): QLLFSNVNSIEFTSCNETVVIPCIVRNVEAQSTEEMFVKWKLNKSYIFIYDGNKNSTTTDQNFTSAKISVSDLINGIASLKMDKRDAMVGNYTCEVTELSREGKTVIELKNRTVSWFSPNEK

[9] = target: T4, CD47 antigen (human CD47 protein, Octet …); assay: BLI (Octet RED 96e), cross-species series, antibody on anti-human Fc tips, human CD47 as analyte
[10] = target: T7, cynomolgus monkey CD47 antigen (cynomolgus monkey, UniProt A0A2K5X523 19-139); assay: BLI (Octet RED 96e), cross-species series, antibody on anti-human Fc tips, cynomolgus CD47 as analyte
T7 construct: also called Cynomolgus CD47

[11] = target: T1, PD-L1 antigen expressed on the cell …; assay: FACS on CHO-K1_PD-L1 cells, anti-human IgG Fc APC
[12] = target: T3, CD47 antigen expressed on the cell …; assay: FACS on Expi-CHO_CD47 cells, anti-human IgG Fc APC
[13] = target: T2, PD-L1 antigen (human PD-L1 protein, …); assay: BLI (Octet RED 96e), antibody on anti-human Fc tips, antigen as analyte, 1:1 global fit

B1: anti-PD-L1xCD47 trivalent HCAb (PPC Nb-IgG4) (bispecific antibody)
heavy: QVQLVESGGGLVQPGGSLRLSCAASGFTFSSFAMSWVRQAPGKGLEWVSDINTGGDSTDYADSVKGRFTISRDNAKNTLYLQMNSLKPEDTAVYYCAKGPKEMVHVYSQRGQGTQVTVSSGGSGGGPSQVQLVESGGGLVQPGGSLRLSCAASGFTFSSFAMSWVRQAPGKGLEWVSDINTGGDSTDYADSVKGRFTISRDNAKNTLYLQMNSLKPEDTAVYYCAKGPKEMVHVYSQRGQGTQVTVSSGGSGGSGGSQVQLVESGGGLVQPGGSLNLSCAVSGLTFFRKYAVGWARQVPGKGLERVSRIYSDRRIEYLDAVKGRFTISRDNAKNTVYLQMNSLKTEDTAVYYCATGLRVGLTGWDEYDYWGQGTQVTVSSGPGGP[sequence of human IgG4 Fc with S228P L445P (EU numbers) not given]
notes: anti-PD-L1 sdAb x anti-PD-L1 sdAb x anti-CD47 sdAb fused to human IgG4 Fc; also called anti-PD-L1xCD47 HCAb; anti-PD-L1xCD47 3-valent HCAb
B1 gave an IC50 [1] of 9.15 nM, a koff [2] of 0.00242 s⁻¹ and a kon [2] of 354000 M⁻¹ s⁻¹. For the same binder, the IC50 [3] was 22.4 nM, the Kd [4] was 3.62 nM and the koff [4] was 0.00201 s⁻¹. It also gave a kon [4] of 554000 M⁻¹ s⁻¹.

B2: humanized anti-PD-L1xCD47 trivalent HCAb (hPPC Nb-IgG4) (bispecific antibody)
heavy: B1 heavy with Q1E, Q129E, Q258E
notes: Humanized (first residue Q to E in each sdAb) form of PPC Nb-IgG4 with human IgG4 Fc; also called humanized anti-PD-L1xCD47 HCAb; humanized anti-PD-L1xCD47 3-valent HCAb
With B2 the Kd [5] was 8.17 nM, the koff [5] was 0.0029 s⁻¹ and the kon [5] was 356000 M⁻¹ s⁻¹. For the same binder, the koff [6] was 0.00254 s⁻¹, the kon [6] was 376000 M⁻¹ s⁻¹ and the “IFN-gamma production by CD4+ T cells in mixed lymphocyte reaction (MoDCs express PD-L1), EC50” value [7] was 0.18 nM. For the same binder, the “IL-2 production by CD4+ T cells in mixed lymphocyte reaction (MoDCs express PD-L1), EC50” value [7] was 0.08 nM, the binding result [8] was “no binding (tested: antigen 12.5 to 200 nM)” and the Kd [9] was 3.34 nM. For the same binder, the koff [9] was 0.00289 s⁻¹, the kon [9] was 866000 M⁻¹ s⁻¹ and the IC50 [1] was 6.83 nM. The Kd [10] was 6.91 nM, the koff [10] was 0.00161 s⁻¹ and the kon [10] was 234000 M⁻¹ s⁻¹. For the same binder, the koff [2] was 0.00254 s⁻¹, the kon [2] was 376000 M⁻¹ s⁻¹ and the IC50 [3] was 33 nM. The Kd [4] was 3.34 nM, the koff [4] was 0.00289 s⁻¹ and the kon [4] was 866000 M⁻¹ s⁻¹. It also gave an EC50 [11] of 11.5 nM and an EC50 [12] of 22.7 nM.

B3: anti-PD-L1 bivalent HCAb (PP Nb-IgG4) (Fc fusion)
heavy: QVQLVESGGGLVQPGGSLRLSCAASGFTFSSFAMSWVRQAPGKGLEWVSDINTGGDSTDYADSVKGRFTISRDNAKNTLYLQMNSLKPEDTAVYYCAKGPKEMVHVYSQRGQGTQVTVSSGGSGGSQVQLVESGGGLVQPGGSLRLSCAASGFTFSSFAMSWVRQAPGKGLEWVSDINTGGDSTDYADSVKGRFTISRDNAKNTLYLQMNSLKPEDTAVYYCAKGPKEMVHVYSQRGQGTQVTVSSGPGGP[sequence of human IgG4 Fc with S228P L445P (EU numbers) not given]
notes: Two copies of PDL1 Nb#01 joined by GGSGGS and fused to human IgG4 Fc; also called anti-PD-L1 2-valent HCAb
B3 showed a Kd [13] of 4.58 nM, a koff [13] of 0.00184 s⁻¹ and a kon [13] of 402000 M⁻¹ s⁻¹. For the same binder, the IC50 [1] was 2.86 nM and the EC50 [11] was 1.93 nM.
